Source: the supplement of paper PMC11417369
This is one part of the list.

Tested on: PfHDP1 homeodomain (GST-tagged)
Assay: gcPBM binding intensity (ln(normalized median fluorescence intensity)); higher = stronger DNA binding
Summary of the method: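 GST-fused DNA-binding domains of P. falciparum, expressed in E. coli, were applied at about 25 μg on average for 1 h to an Agilent 4 × 180k array of primer-extended double-stranded 36-bp intergenic genomic probes and negative controls. Binding intensity is the highest Masliner-normalised natural-log median intensity across replicate spots of either probe orientation, measured with Alexa488 anti-GST antibody and a 488 nm scan.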

Sequence	gcPBM binding intensity (ln)
TATAAAAATGGGCACACACACACATATATATATTTA [CACACA_site1527]	6.8
TATTTAAATTTTAAGTGTACATATTTATTTATATCT [XGTACX_site6545]	6.47
ATATATATATATATAACACACGCAAAAAAATTAAAT [CACACA_site8395]	9.06
AAAAAAAAAAAAATCACACATAATATAGAATATGTA [CACACA_site4993]	6.13
AACTTAAAAAATAAATGTACATAAATATAAACATAT [XGTACX_site2987]	6.59
TTTTTTAACAAAAATAAAACATAACTGAATTAAAAG [GTGCAC_negctrl_site244]	6.41
CTTCCTATATTTTACTGTACTTTTTTTTTTTTTTTT [XGTACX_site4016]	6.51
AAACCTTTACATCGTTTGCACTATATTGATATGTGT [GTGCAC_site9686]	8.85
CATACATACATACATACACACACATATATATATATA [CACACA_site8593]	9.27
ACGAATTAAATTTGCTGTACCAAAAAGAAAACAATA [XGTACX_site5511]	6.33
GCTTCTTAATATCATACACACATAGATATATTTATA [CACACA_site5676]	7.05
GGAGACTTTGTATTGGGTACGTATTTCAATGCATGT [XGTACX_site1596]	6.31
TTATAATGAAATATATTCTTATTCTTTTTTTTTTTT [GTGCAC_negctrl_site384]	6.01
TAAAATGTACAGGACGCACACACATATATATATATA [CACACA_site3673]	9.25
TTTTTTTTTTTTCATTGTACTCTTAAAAATTCAACT [XGTACX_site3154]	6.24
ATTAAAATTTAAAATACACACACATATATATAATAT [CACACA_site8612]	6.97
TATTTTTTTTTTTTTTTACACACTATAGGGAAAAAA [CACACA_site8583]	6.38
AACAACAACTAATATGCACACATTTAAAAACAAAAT [CACACA_site2440]	9.7
AAATAAAGCATGTGCTGTACAAACGAAATATTTAAG [XGTACX_site3146]	6.92
TGTCATGATACATACACACACATACCCATACCCATA [CACACA_site5211]	6.72
AACAAATGTTAAATGTTTAAGGAGAAAATAAAGACA [CACACA_negctrl_site1163]	6.75
AAAACGAAACATCTGTGTATAAGTCTATATTATTAT [XGTACX_negctrl_site301]	6.39

Sequence	gcPBM binding intensity (ln)
GAAAACATAAAAATATGTACTTAAAATATATTTTGT [XGTACX_site868]	6.27
TTTATGTGTATTAAGTGTACACATATAGTGTATTTT [XGTACX_site999]	7.03
ATATATAAGGAAAAAAGTACTTATATTTTTTTTTTG [XGTACX_site1909]	5.95
AGATTAAAATAATATAAACACACATATACTTTTTTC [CACACA_site8085]	6.33
ATAATTAAAAAAAATTGTACATATAAATAGAAGATT [XGTACX_site230]	6.8
TAGGTATGCTCTCAATGTACATAAAATAATTTTACT [XGTACX_site6556]	8.1
AAAAAAAAAAGAATAGCACACACACCGATATAAATA [CACACA_site8111]	7
TTTAAATACAGACATACACACATACACCCACATATA [CACACA_site8078]	6.93
TAAGAAATAAATAGTACACACATAGACACAGACACA [CACACA_site4934]	7.04
TGTTTTTATTTATTCTGTACTGAAGAGAGTTATATA [XGTACX_site8859]	6.56
GTATATGAGAAAAAAAGTACATGCACAAAATGTATA [XGTACX_site6441]	7.96
ATATAAATTTTTTATGAACACACAAATACAGACACT [CACACA_site8848]	7.19
AATACAAGAACTGACACACATACATACTACATTTTA [CACACA_site2829]	6.81
ATATTTATATATAGTAGTACTTTCAATAATTTAAAT [XGTACX_site7276]	6.45
AAAGAAAGAAGACACACACACATATATAAATATCAA [CACACA_site7715]	6.73
AAAAAATTAAAAATACGTACATATATACATATATAT [XGTACX_site4621]	6.22
TATGATATTTATATGCGTACTGAAGTATGCCTATTT [XGTACX_site6133]	6.33
TCTTAAAATATATAGGTGCAAAAAAAAAAAAAAAAA	8.62
ATATTCATGTTGATATGTACTTATTCTATATTGAAT [XGTACX_site8347]	6.31
ATCAGTGATTAGGTTATATATAAAAATGAACTAATA [GTGCAC_negctrl_site647]	6.64
TATATATATATATATATACACACTTGTGCAGAATAT [CACACA_site2216]	9.87
GATATTCTATAAAAAAGTACAAATATTTTAAAAAAT [XGTACX_site2177]	6.2
